Experimental findings from PubChem BioAssay AID1347073 (National Center for Advancing Translational Sciences (NCATS), 2019) are described below.

Among all 45,000 compounds or so, about 200 (0.44%) were called active. Inconclusive results (about 7%) are left out. The call rests on the fitted dose curve; in most records, active means well fitted activation curve with a large enough effect; inconclusive means small, poorly fitted or top-dose-only effect; inactive means no such curve, though single readings can be large or run the other way. This is one part of the list.

The assay can be described thus: qHTS of TDP-43 Inhibitors: NCGC Sytravon Library Screen. Further: 0% is about no effect; nearly all actives have a fitted effect of over 55% in size. As to conditions: yeast TDP-43 toxicity rescue, BacTiter-Glo growth, 24 h; series mostly up to 46.1 µM; growth rescue (activation): at the top concentration. The method, boiled down: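 TDP-43-expressing yeast, pregrown in raffinose, seeded at OD600 0.02 in galactose medium with compound for 24 hr at 30 deg C. Growth read by BacTiter-Glo luminescence, so rescue of toxicity appears as activation.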
In general terms: Quantitative high-throughput screening tests each substance at several concentrations.
In the case of `O=C(CSc1nc2ccccc2[nH]1)NC1CCCc2ccccc21` (centres undefined), the “growth rescue (activation)” value was inactive: 4.45%.
`CC(C)c1nc(SCC(=O)NC2CCCC2)c2ccccc2n1`: the “growth rescue (activation)” value is inactive: 13.9%.
Then `O=c1[nH]c(CN2CCCCC2)nc2ccccc12`, with inactive: 21.9%.
Consider `COc1ccc(NS(=O)(=O)c2cccc(C(=O)Nc3cccc(C(=O)O)c3)c2)cc1`, for which the “growth rescue (activation)” value is inactive: -5.86%.
Under `O=C(Nn1c(C2CCC2)nc2ccccc2c1=O)c1cccs1` stands inactive: 3.46%; under `CCOC(=O)/C(=C\c1ccc(OC)c(OC)c1)C(=O)c1cccnc1`, inactive: 16.4%.
On to `Cc1ccc(-c2nnc(Nc3ccc(C(=O)N(C)C)cc3)c3ccccc23)cc1S(=O)(=O)NC(C)(C)CO`, for which the “growth rescue (activation)” value is inactive: 24.7%.
Under `Cn1c(=O)cc(SCC(=O)NCc2ccc(F)cc2)c2ccccc21` stands inactive: 12.5%; under `COc1cc(OC)c(CN2CCC(CO)(CCOc3ccccc3)CC2)c(OC)c1`, inactive: 6.04%.
Then `CCCOC(=O)c1ccc(NC(=O)CN(C)Cc2cccs2)cc1`, with inactive: 4.74%; and `Cc1csc(=O)n1CCC(=O)N(C)Cc1c(F)cccc1Cl`, with inactive: 15.2%; and `Cc1[nH]c2ccccc2c1C(c1ccncc1)N1CCN(c2ccc(F)cc2)CC1` (centres undefined), with inactive: 10.1%.
`O=C(CSc1nnc(-c2ccccc2)n1-c1ccc(Cl)cc1)NNC(=S)Nc1ccccc1`: the “growth rescue (activation)” value was inactive: 29.1%.
Then `CCc1cccc2c(C(=O)C(NCCCOC)c3ccccc3)c[nH]c12` (centres undefined), with inactive: 7.4%; and `Cc1ccc(-c2cc(C(=O)NCC(c3ccccc3)N(C)C)c3ccccc3n2)o1` (centres undefined), with inactive: -19.7%; and `O=C(CCN1C(=O)/C(=C/C=C/c2ccccc2)SC1=S)Nc1nc2ccccc2s1`, with inactive: 8.13%.
Under `O=C(/C(=N\O)n1cncn1)c1ccc(Cl)cc1Cl` stands inactive: 17.6%; under `O=C(NCc1ccccn1)c1ccc(OC2CCN(Cc3ccccc3O)CC2)cc1`, inactive: 5.88%; under `COc1ccc(/C(C)=N/Nc2ccccc2Cl)c(O)c1`, inactive: 6.01%.
Then `CCOc1ccc(S(=O)(=O)N2CCN(CC)CC2)cc1NC(=O)c1ccccc1F`, with inactive: 3.31%.
`O=C(O)C1=NOC(CNc2ncc(C(F)(F)F)cc2Cl)C1` (centres undefined): the “growth rescue (activation)” value was inactive: 2.2%.
Then `Cc1ccc(S(=O)(=O)N2CCCCC2)cc1C(=O)OCC(=O)N1c2ccccc2NC(=O)C1(C)C`, with inactive: 10.6%; and `CC1(C#CC[N+]2(C)CCCCC2)CCC2C(O1)c1ccccc1OC2(C)C` (centres undefined), with inactive: 5.99%.
For the compound `O=Cc1ccc(-n2cccn2)cc1`, the “growth rescue (activation)” value is inactive: 7.58%.
Under `CC(C(=O)NCc1ccccc1Cl)N1C(=O)c2ccccc2C1=O` (centres undefined) stands inactive: 0.181%.
Take `O=C(NC1CCCCC1)c1cc(S(=O)(=O)N2CCOCC2)c(Cl)cc1Cl`: the “growth rescue (activation)” value is inactive: -28.7%.
In the case of `Cc1cc(C)n(CCNS(=O)(=O)c2ccc(C)c(C)c2)n1`, the “growth rescue (activation)” value was inactive: 9.41%.
Then `c1cc(-c2ccsc2)n2cnnc2c1`, with inactive: -3%; and `Cc1occc1C(=O)N/N=C/C=C/c1ccccc1`, with inactive: -6.79%; and `CC1(C)CC(=O)C(CC2CCCCC2=O)C(=O)C1` (centres undefined), with inactive: 6.02%.
Under `O=C(CSCc1ccc(Cl)cc1Cl)Nc1ccccc1C(=O)Nc1ccc(C(=O)O)cc1` stands inactive: 2.14%.
As for `Cc1ccccc1C(=O)Nc1nnc(S(=O)(=O)N2CCCCCC2)s1`, the “growth rescue (activation)” value is inactive: 9.05%.
Under `O=C(NCCCNC(=O)c1ccccc1Cl)c1cnccn1` stands inactive: -8.14%; under `CCc1ccccc1NC(=O)COc1ccc2c(=O)c(Oc3cc(C)ccc3C)coc2c1`, inactive: -7.67%; under `COc1ccccc1-n1cc(-c2ccc(Cl)cc2)[nH]c1=O`, inactive: -1.02%.
As to `O=C(NCC1CCCO1)C(=O)N/N=C/c1c(F)cccc1Cl` (centres undefined), the “growth rescue (activation)” value was inactive: 16.4%.
Under `N/C(=N\OC(=O)CCCOc1ccccc1)c1ccccn1` stands inactive: -7.24%; under `O=C(CNCCc1ccc(Cl)cc1)Nc1ccc(C(=O)N2CCCCC2)cc1`, inactive: 5.79%; under `COc1ccc(-c2cc(C)nc(SCc3cccc(C(=O)O)c3)n2)cc1`, inactive: 10.2%.
With `O=C(CCSCCc1ccccn1)Nc1c(F)c(F)c(F)c(F)c1F`, the “growth rescue (activation)” value was inactive: 19.2%.
In the case of `O=S(=O)(c1ccc(Cl)cc1)N1CCN(Cc2ccncc2)CC1`, the “growth rescue (activation)” value is inactive: -7.85%.
Turning to `c1ccc2c3c([nH]c2c1)C(C1CCCCC1)N(Cc1ncc[nH]1)CC3` (centres undefined), the “growth rescue (activation)” value is inactive: 1.92%.
Then `Cc1ccc(S(=O)(=O)NC(=O)C2(C)CCN2C(=O)CCc2ccc(Cl)cc2Cl)nc1` (centres undefined), with inactive: 1.46%.
In the case of `COc1ccc(C2(CNC(=O)c3cc(OC)c(OC)c(OC)c3)CCCC2)cc1OC`, the “growth rescue (activation)” value was inactive: 5.4%.
Consider `COc1ccc(OC)c(CCNC(=O)CCc2cn(C)c3ccccc23)c1`, for which the “growth rescue (activation)” value is inactive: 0.899%.
Then `O=C(Cn1cnc2cc([N+](=O)[O-])ccc2c1=O)N1CCN(S(=O)(=O)c2ccccc2)CC1`, with inactive: -9.34%.
Under `Cc1ccccc1NC(=O)CSc1nc(N)c2c3c(sc2n1)CSC(C)(C)C3` stands inactive: 22.3%.
In the case of `Cc1ccnc(SCC(=O)N2CCc3ccccc32)n1`, the “growth rescue (activation)” value is inactive: 4.68%.
Then `O=C(O)CCn1cc(/C=N/O)c(-c2cccc([N+](=O)[O-])c2)n1`, with inactive: -3.07%; and `Cc1nn(C(C)C(=O)N2CCCCC2)c(=O)c2c1sc1ccccc12` (centres undefined), with inactive: 7.57%; and `COc1cccc(-c2coc3c(C)c4oc(=O)c(CCC(=O)O)c(C)c4cc23)c1`, with inactive: -87%.
As for `CCc1nc2c(OCc3ccc(C(F)(F)F)cc3)cccn2c1N(C)C(=O)C(C)C`, the “growth rescue (activation)” value was inactive: 2.1%.
Turning to `Cn1c(COc2ccc(Br)cc2)nnc1SC1CCc2ccccc2C1=O` (centres undefined), the “growth rescue (activation)” value is inactive: 13.1%.
Then `Cc1cccc(C(=O)NCc2nnc(SCC(=O)Nc3nnc(C)s3)n2C)c1`, with inactive: -21.3%; and `CCOC(=O)c1cnc2ccccc2c1Nc1ccc(C(=O)O)cc1`, with inactive: 9.52%; and `Cc1noc(C)c1COC(=O)COc1ccc(C#N)cc1`, with inactive: 13.9%.
For the compound `O=C(NNC(=O)C12CC3CC(CC(C3)C1)C2)c1ccco1`, the “growth rescue (activation)” value was inactive: 1.66%.
Turning to `O=C(NCC1CCN(Cc2ccccc2Cl)CC1)Nc1cccc(Cl)c1`, the “growth rescue (activation)” value is inactive: -5.33%.
Under `Cc1cccc(/C=N/NC(=O)c2cccc([N+](=O)[O-])c2)n1` stands inactive: -9.97%.
Under `COC(=O)c1cc(Cn2nc(C(=O)O)c3ccccc3c2=O)oc1C` stands inactive: -1.22%.
Consider `COCCN(C(=O)CSc1nc2ccc(C)cc2[nH]1)c1c(N)n(Cc2ccccc2)c(=O)[nH]c1=O`, for which the “growth rescue (activation)” value was inactive: 5.05%.
For `CCNC(=O)c1ccc(N(C)S(=O)(=O)c2cccs2)cc1`, the “growth rescue (activation)” value was inactive: 20%.
For `O=C(Nc1ccccc1F)c1ccc(Cn2cc(Cl)cn2)cc1`, the “growth rescue (activation)” value was inactive: 9.96%.
Then `CN(Cc1ccno1)Cc1cn(C)nc1-c1ccc(Oc2ccccc2)cc1`, with inactive: 11.6%.
For `COc1ccc(Br)c(C(=O)Nc2nc3ccccc3[nH]2)c1`, the “growth rescue (activation)” value was inactive: -7.89%.
Then `COc1ccc(-c2nc(NC(=O)c3ccc(OCC(=O)Nc4ccc(F)cc4)c(OC)c3)sc2C)cc1`, with inactive: -23.5%; and `O=C(/C=C/c1ccc2c(c1)OCO2)N1CCN(c2ccc(Cl)cc2)CC1`, with inactive: 12%; and `O=Cc1c(N2CCN(CCO)CC2)nc2ccccn2c1=O`, with inactive: -4.58%.
As to `CC1=NNC(=O)C1CC(=O)N/N=C/C=C/c1ccccc1` (centres undefined), the “growth rescue (activation)” value was inactive: 11%.
